Measured values from the GPR68 mutational scans of Howard et al. (2025).
The least precise scores are not listed. Two further conditions of the source, in which the scores hardly spread, are not listed. Read del as a deletion of the residues named and ins as an insertion between two positions. For part of these data: The data file names ogerin without a concentration.

B1: GPR68, Q15743 (parent)
chain: MGNITADNSSMSCTIDHTIHQTLAPVVYVTVLVVGFPANCLSLYFGYLQIKARNELGVYLCNLTVADLFYICSLPFWLQYVLQHDNWSHGDLSCQVCGILLYENIYISVGFLCCISVDRYLAVAHPFRFHQFRTLKAAVGVSVVIWAKELLTSIYFLMHEEVIEDENQHRVCFEHYPIQAWQRAINYYRFLVGFLFPICLLLASYQGILRAVRRSHGTQKSRKDQIQRLVLSTVVIFLACFLPYHVLLLVRSVWEASCDFAKGVFNAYHFSLLLTSFNCVADPVLYCFVSETTHRDLARLRGACLAFLTCSRTGRAREAYPLGAPEASGKSGAQGEEPELLTKLHPAFQTPNSPGSGGFPTGRLA

Assays:
[1] = variants of: B1; experiment: cAMP reporter score (Enrich2 score, wild type = 0); higher = more signal; HEK293T, FACS bins
[2] = variants of: B1; experiment: surface expression score (Enrich2 score, wild type = 0); higher = more signal; HEK293T, FACS bins

Variant | cAMP reporter score ([1]; pH 5.5) | cAMP reporter score ([1]; pH 6) | cAMP reporter score ([1]; pH 6, modulator: ogerin) | cAMP reporter score ([1]; pH 6.5, modulator: ogerin) | surface expression score [2]
R299E | 0.766 | -0.755 | 0.499 | -0.291 | 0.691
R299F | -0.946 | -1.43 | -1.08 | -1.33 | -1.75
R299G | 2.43 | – | -1.12 | – | 1.7
R299H | 1.73 | 0.229 | 0.318 | -0.236 | 1.21
R299I | 0.282 | 0.178 | -0.379 | -0.457 | -1.09
R299K | 0.303 | 0.724 | 0.48 | -0.124 | 0.265
R299L | -0.487 | 0.556 | -1.05 | -0.138 | -0.162
R299M | 0.527 | -0.493 | -0.101 | -0.791 | -0.972
R299N | 1.12 | 1.03 | 1.35 | – | 1.03
R299P | 0.756 | -0.551 | 0.217 | -0.759 | 0.005
R299Q | 0.56 | -0.079 | 0.493 | 0.068 | 0.752
R299S | 1.11 | -0.199 | 0.993 | -0.817 | 0.774
R299T | -0.881 | 0.373 | – | -0.594 | 0.562
R299V | -0.193 | -1.09 | -0.81 | -0.676 | -0.96
R299W | -0.392 | -1.62 | -0.399 | -1.29 | -0.353
R299Y | 1.41 | 0.202 | 1.19 | 0.106 | -0.539
R299_R301del | -1.91 | -0.363 | -1.3 | -1.33 | -0.762
L300_G302del | -1.02 | -1.24 | -1.65 | -1.16 | 0.261
L300_R301insG | -0.132 | -0.95 | -0.479 | -0.792 | -0.388
L300_R301insGS | -0.968 | -0.943 | -1.06 | -0.961 | -0.806
L300_R301insGSG | -0.49 | -0.315 | -0.393 | -0.709 | -0.17

Variant | cAMP reporter score ([1]; pH 5.5) | cAMP reporter score ([1]; pH 6) | cAMP reporter score ([1]; pH 6, modulator: ogerin) | cAMP reporter score ([1]; pH 6.5, modulator: ogerin) | surface expression score [2]
L300del | -0.324 | -0.228 | -0.462 | -0.765 | -0.041
R301_G302insG | 0.595 | -0.802 | 0.534 | -0.57 | 0.178
R301_G302insGS | 0.335 | -0.163 | 0.732 | -0.876 | 1.15
R301_G302insGSG | 0.509 | -0.141 | 0.797 | 0.405 | -0.218
G302A | 1.16 | 0.444 | 1.31 | 1.04 | 1.58
G302C | -0.046 | -0.87 | -0.204 | -0.043 | -0.456
G302D | 1.16 | 2.35 | 1.98 | 2.19 | 2.2
G302E | 0.661 | -0.196 | 0.61 | 0.591 | 0.89
G302F | -0.327 | -1.33 | -0.431 | -0.084 | -1.08
G302H | 0.173 | -0.155 | 0.406 | -0.041 | 0.633
G302I | -0.216 | -0.348 | 0.037 | -0.426 | -0.511
G302K | 0.513 | 1.52 | 0.743 | 0.697 | 1.13
G302L | 0.393 | – | 0.365 | -0.653 | -0.61
G302M | 0.71 | 0.782 | 1.45 | 1.23 | 0.563
G302N | -0.357 | 0.391 | 0.261 | -0.229 | 0.309
G302P | 1.37 | 0.371 | 0.774 | 0.281 | 0.696
G302Q | 1.03 | 0.304 | 1.14 | 1.13 | 1.31
G302S | 0.358 | -0.257 | 0.418 | 0.656 | -0.351
G302T | 0.807 | 0.632 | 1.18 | 0.854 | 1.31
G302V | 0.27 | -1.13 | 0.407 | -0.05 | -1.09
G302W | 0.054 | -1.18 | -0.68 | -0.983 | -1.18

Variant | cAMP reporter score ([1]; pH 5.5) | cAMP reporter score ([1]; pH 6) | cAMP reporter score ([1]; pH 6, modulator: ogerin) | cAMP reporter score ([1]; pH 6.5, modulator: ogerin) | surface expression score [2]
G302Y | 0.027 | 0.042 | 0.274 | -0.55 | -0.82
G302_A303del | -0.269 | -0.343 | -0.648 | -0.106 | -0.534
G302_A303insGSG | -0.087 | -0.659 | -0.265 | -0.982 | 0.04
A303_C304del | 1.23 | 0.083 | 0.965 | -0.44 | 0.2
A303_C304insG | -0.528 | -0.671 | -0.768 | -1.67 | -1.23
A303_C304insGS | -0.106 | -0.781 | 0.117 | -0.825 | -0.764
A303_L305del | 0.569 | 0.584 | 0.069 | 0.37 | 0.115
C304A | 0.793 | -0.926 | 0.954 | 0.225 | 1.01
C304D | -0.322 | 0.413 | -0.612 | – | 0.602
C304E | 0.179 | -0.858 | -0.498 | -0.343 | 1.07
C304F | 0.058 | 0.232 | 0.298 | 0.254 | 0.504
C304G | -0.22 | -0.684 | 0.648 | – | 0.222
C304H | 0.071 | -1.09 | 0.121 | -0.913 | -0.383
C304I | -0.858 | -0.497 | -0.509 | 0.015 | -0.565
C304K | -0.18 | – | -0.176 | -0.539 | -0.806
C304L | 0.596 | – | – | 1.22 | 0.663
C304M | -0.296 | -0.749 | -0.499 | 0.7 | -0.389
C304N | 0.474 | -0.653 | -0.55 | -1.21 | 0.254
C304P | -1.57 | -1.33 | -1.62 | -1.11 | -0.671
C304Q | -0.188 | -1.5 | -0.459 | -1.11 | -0.187
